The source of these data is paper PMC8866669.

For assay [1], the target named is Transmembrane 4 L six family member 5 (TM4SF5), wild type, Strep-tagged (UniProt O14894). The assay is described as follows: condition: only ~15–30 min after fructose treatment (450 mg/dL) of glucose-starved cells; pull-down; as a1, but cells harvested ~15-30 min after fructose treatment (450 mg/dL) of glucose-starved Huh7 cells; streptavidin-agarose co-pulldown of TM4SF5-Strep.

Assay [2] has the same target. The assay is described as follows: pull-down; co-pulldown of TM4SF5-Strep with streptavidin-conjugated agarose beads from lysates of transfected Huh7 cells (IP lysis buffer: 40 mM HEPES pH 7.4, 150 mM NaCl, 1 mM EDTA, 0.5% Triton X-100); cells glucose-starved 16 h, without or with fructose (450 mg/dL; 0-120 min); the text calls it co-immunoprecipitation.
In assay [3] the target is TM4SF5-Strep T157A mutant (UniProt O14894). The assay is described as follows: pull-down; co-precipitation of GLUT8-FLAG with TM4SF5-Strep wild type or mutants from transfected cells (Fig. S5B-D); beads and treatment of the cells are not told in what was shown.
Assay [4] deals with TM4SF5-Strep N138A mutant (UniProt O14894). Described as above.
The target in assay [5] is TM4SF5_(1-90)-Strep, C-terminal half-deleted mutant (UniProt O14894). The assay is described as above.
Assay [6] addresses TM4SF5-Strep W154A mutant (UniProt O14894). The description is as above.
Assay [7] has as its target TM4SF5-Strep A132V mutant (UniProt O14894). The assay is described as above.
Assay [8] deals with TM4SF5-Strep N155Q mutant (UniProt O14894). The description is as above.
The target in assay [9] is Transmembrane 4 L six family member 5 (TM4SF5), wild type, Strep-tagged (UniProt O14894). Described as above.
In assay [10] the target is TM4SF5-Strep V156A mutant (UniProt O14894). Described as above.
Assay [11] deals with T1, TM4SF5_(91-197)-Strep, N-terminal half-deleted mutant (UniProt O14894).
T1 sequence: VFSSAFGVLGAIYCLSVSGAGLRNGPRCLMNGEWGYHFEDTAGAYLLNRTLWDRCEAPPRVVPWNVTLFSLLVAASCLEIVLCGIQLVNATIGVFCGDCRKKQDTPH
The description is as above.

Assay [12] concerns the target TM4SF5-Strep glycosylation-deficient N138A/N155Q mutant (UniProt O14894). The description is as above.

Results are given in words; binding and its absence hold for the method and conditions named. In cells and extracts the contact can be indirect. Some entries that bind do so weakly or less than the wild type. Tags and fused reporters may be left off the sequences shown.

B1: Glucose transporter 8 (GLUT8), FLAG-tagged (protein, UniProt Q9NY64 1-477)
chain: MTPEDPEETQPLLGPPGGSAPRGRRVFLAAFAAALGPLSFGFALGYSSPAIPSLQRAAPPAPRLDDAAASWFGAVVTLGAAAGGVLGGWLVDRAGRKLSLLLCSVPFVAGFAVITAAQDVWMLLGGRLLTGLACGVASLVAPVYISEIAYPAVRGLLGSCVQLMVVVGILLAYLAGWVLEWRWLAVLGCVPPSLMLLLMCFMPETPRFLLTQHRRQEAMAALRFLWGSEQGWEDPPIGAEQSFHLALLRQPGIYKPFIIGVSLMAFQQLSGVNAVMFYAETIFEEAKFKDSSLASVVVGVIQVLFTAVAALIMDRAGRRLLLVLSGVVMVFSTSAFGAYFKLTQGGPGNSSHVAISAPVSAQPVDASVGLAWLAVGSMCLFIAGFAVGWGPIPWLLMSEIFPLHVKGVATGICVLTNWLMAFLVTKEFSSLMEVLRPYGAFWLASAFCIFSVLFTLFCVPETKGKTLEQITAHFEGR
On to B1, for which the binding entry in assay [1] is “no binding”; in assay [2], “binds”; in [3], “no binding”; in [4], “binds”; in [5], “no binding”; in [6], “binds”. Further, the binding entry in assay [7] is reported as “binds”; in [8] it was “binds”; in assay [9], “binds”; in assay [10] it was “no binding”; in assay [11], “binds”; in [12] it was “binds”.
